Data taken from PubChem BioAssay AID445 (National Center for Advancing Translational Sciences (NCATS), 2006).
Screen size: about 110,000 compounds; about 40 (0.04%) were called active. Inconclusive means that the source gave no clear call. Such entries were picked first, then a sample of the others. Calls come from the whole dose curve; as a rule, active = well fitted curve in the direction sought with a large enough effect in the signal ratio (not every such curve was filed as active); inconclusive = small, poorly fitted or top-dose-only effect, or a change in a side signal; inactive = flat fitted curve, though single readings scatter; the % refers to the signal ratio. Where the call is inconclusive, the potency comes from a doubtful curve fit.

assay: IkB Signaling; details: ABC-DLBCL IkBa-CBG/CBR dual luciferase ratio (green luciferase fused to IkBa over red control in OCI-Ly3 lymphoma cells), 4 h; IkBa stabilization activation: at 57.1 µM (top of the series), scaled: untreated 0%, proteasome inhibitor 100% unless noted;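 for IkBa stabilization activation: 0% = basal untreated cells and 100% = reference inhibitor full response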
Procedure, shortened: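 In this assay, an IκBα–CBG68 fusion accumulates when IKK-driven degradation is blocked; native CBR normalizes for cell number. OCI-Ly3 cells were treated 4 h with compound and doxycycline, then green and red light read after Chroma-Glo addition.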
Potency is the fitted concentration of half-maximal effect.

| SMILES | IkBa stabilization activation | Potency |
| --- | --- | --- |
| O=C(CSc1nnc(-c2ccco2)n1Cc1ccccc1)OC1CCCCC1 | inactive |  |
| Oc1ccccc1-c1nc(/C=C/c2ccccc2Cl)no1 |  | inconclusive: 12.6 µM [signal inhibitor, partial curve] |
| CCC(C)n1cnc2c(c1=O)c1nc3ccccc3nc1n2-c1ccc2c(c1)OCCO2 (configuration not stated) | inactive |  |
| COc1ccccc1OCCCn1c(C2CC(=O)N(c3ccccc3Cl)C2)nc2ccccc21 (configuration not stated) | inconclusive: -0.167% [signal inhibitor] |  |
| COc1ccccc1C(=O)N1CCN(c2cccc(Cl)c2)CC1 | inactive |  |
| COc1ccc(N2C(=O)CCSC23C(=O)N(Cc2ccc(F)cc2)c2ccccc23)cc1Cl (configuration not stated) | inconclusive: -1.48% [signal inhibitor] |  |
| CCc1ccccc1NC(=O)Cn1c(=O)ccc2cc(S(=O)(=O)N3CCC(C)CC3)ccc21 | inconclusive: -0.43% [signal inhibitor] |  |
| Cc1ccc(O)c(-c2cc(C(=O)Nc3ccc(S(=O)(=O)N4CC(C)OC(C)C4)cc3)[nH]n2)c1 (configuration not stated) | inactive |  |
| Cc1cccc(N2CCN(S(=O)(=O)c3c(C)nc4scc(C)n4c3=O)CC2C)c1 (configuration not stated) | inconclusive: 6.25% [signal inhibitor] |  |
| CC1CCN(C(=O)c2ccc(NC(=O)c3nsc4ccccc34)cc2)CC1 |  | inconclusive: 1 µM [signal inhibitor, full curve] |
| CCOC(=O)c1sc(NC(=O)c2nc3nc(C)cc(C(F)F)n3n2)c(C(=O)OC)c1C | inconclusive: 3.34% [signal inhibitor] |  |
| COC(=O)N1CCC2(CCCN(Cc3ccc(C#N)cc3)C2)CC1 | inactive: 2.97% [at 11.4 µM, scaled: untreated 0%, proteasome inhibitor 100%] |  |
| Cn1nc(C(=O)Nc2ccccc2C#N)c2c1-c1ccccc1SC2 | inconclusive: 0.399% [signal inhibitor] |  |
| C[C@@H]1C[C@@H]2[C@H]3CCC4=CC(=O)C=C[C@]4(C)[C@]3(F)[C@@H](O)C[C@@]2(C)[C@@]1(O)C(=O)CO |  | inconclusive: 0.00794 µM [rising, full curve] |
| COc1cccc(-c2cc(C(=O)Nc3cccnc3Cl)no2)c1 |  | inconclusive: 15.8 µM [signal inhibitor, partial curve] |
| COc1ccc(-c2nc3ccc(C(=O)NCc4ccc(C)cc4)cc3nc2-c2ccc(OC)cc2)cc1 | inconclusive: 0.755% [signal inhibitor] |  |
| COc1ccc(Cl)cc1-n1c(CCC(=O)O)ccc1-c1ccc(C)cc1 | inconclusive: 9.76% [signal inhibitor] |  |
| Cc1noc(C)c1CSc1nnc(-c2ccccc2F)n1CCc1ccccc1 | inactive |  |
| COc1ccc(Br)cc1CNC(=O)CCSCc1ccc(Cl)cc1 | inconclusive: 0.41% [signal inhibitor] |  |
| Cc1c(C(=O)OC(C)CCN(C)C)oc2ccccc12 (configuration not stated) | inactive |  |
| CCN1CCN(c2cc(C)c3cc(NC(=O)c4cc(OC)cc(OC)c4)ccc3n2)CC1 | inactive |  |
| Cc1ccc(OCCn2c(COc3ccc(Cl)cc3)nc3ccccc32)cc1 |  | inconclusive: 3.16 µM [signal inhibitor] |
| COc1ccc(-c2noc(-c3ccccc3C(=O)NCc3ccco3)n2)cc1OC | inconclusive: 0.281% [signal inhibitor] |  |
| c1ccc(Cn2nnnc2C(c2cccs2)N2CCc3ccccc3C2)cc1 (configuration not stated) | inconclusive: 2.72% [signal inhibitor] |  |
| CCOc1ccc(NC(=O)c2oc3ccccc3c2NC(=O)C(C)Oc2ccccc2)cc1 (configuration not stated) | inactive |  |
| CC(C)Cn1c(SCc2cccc(F)c2)nc2ccsc2c1=O | inconclusive: -2.52% [signal inhibitor] |  |

| SMILES | IkBa stabilization activation | Potency |
| --- | --- | --- |
| CCOc1ccc(CNC(=O)c2cccc(Nc3nc4ccccc4n4nnnc34)c2)cc1OC |  | inconclusive: 31.6 µM [rising, partial curve] |
| CSc1nc(N)nc(SCC(=O)c2ccccc2)c1C#N | inconclusive: 11.1% [signal inhibitor] |  |
| O=C(CCn1c(=O)c2cccn2c2cccnc21)NCc1cccc(Br)c1 | inactive |  |
| CCOc1ccc(OCC)c(NC(=O)CSc2nc3c(c(=O)n(C)c(=O)n3C)n2CC)c1 | inactive |  |
| COc1ccc(-c2cn3c(n2)sc2cc(C(=O)NCc4ccccc4)ccc23)cc1 | inconclusive: 1.17% [signal inhibitor] |  |
| Cc1ccc(CNc2c(C)c(C)nc3nncn23)cc1 | inconclusive: -0.538% [signal inhibitor] |  |
| COc1ccc(OC)c(C2CC(=O)Nc3ccc4ccccc4c32)c1 (configuration not stated) | inconclusive: 17.9% [signal inhibitor] |  |
| CC1Cc2cc(S(=O)(=O)CCC(=O)Nc3ccc(OC(F)(F)F)cc3)ccc2N1C(=O)C1CC1 (configuration not stated) | inconclusive: 0.559% [signal inhibitor] |  |
| CCNC(=O)CSc1nc2cc(OC)c(OC)cc2c(=O)n1CCC1=CCCCC1 | inactive |  |
| CCN(C(=O)CCS(=O)(=O)c1cc(Br)cc2c1N(C(=O)C1CC1)CC2)c1cccc(C)c1 | inconclusive: 0.875% [signal inhibitor] |  |
| COc1ccc(Cc2nc3ccc(C(=O)NCCc4ccc(Cl)cc4)cc3o2)cc1 | inconclusive: 1.16% [signal inhibitor] |  |
| COc1ccccc1C1=Nn2c(nc3sc(C(=O)Nc4ccccc4Cl)c(C)c3c2=O)SC1 | inactive |  |
| Cc1ccc(C)c(C(=O)N2CCC(c3nc4c(nnn4Cc4ccccc4)c(=O)[nH]3)CC2)c1 | inconclusive: 0.353% [signal inhibitor] |  |
| CCOCCCn1c(SCC(=O)Nc2ccccc2OC)nc2c(oc3ccccc32)c1=O | inconclusive: 1.01% [signal inhibitor] |  |
| CCOc1ccccc1N1CC(c2nc3ccccc3n2CCCCOc2ccccc2)CC1=O (configuration not stated) | inconclusive: -0.00361% [signal inhibitor] |  |
| CCOc1ccc(Nc2oc(/C=C/c3cc(OC)c(OC)c(OC)c3)nc2C#N)cc1 | inconclusive: 3.27% [signal inhibitor] |  |
| CN(C)CCC(=O)c1ccc(Cl)cc1 | inconclusive: 7.22% [signal inhibitor] |  |
| COc1ccc(NC(=O)CN(C)S(=O)(=O)c2cnc[nH]2)cc1 | inconclusive: 2.1% [signal inhibitor] |  |
| CCOc1ccc(NC(=O)CSc2nc3ccccc3c(=O)n2CCC(=O)NC2CCCCC2)cc1 | inactive |  |
| COc1cc(C(=O)NCCSc2c(C)[nH]c3ccccc23)cc(OC)c1OC | inconclusive: 7.87% [signal inhibitor] |  |
| COc1ccc(-c2noc(C3CC(=O)N(c4ccc5c(c4)OCCO5)C3)n2)c(OC)c1 (configuration not stated) | inconclusive: -0.236% [signal inhibitor] |  |
| COc1cccc(NS(=O)(=O)c2cc(-c3cnc(C4CC4)o3)ccc2C)c1 | inactive |  |
| O=C1CC(N2CCN(c3nc4ccccc4s3)CC2)C(=O)N1Cc1cccs1 (configuration not stated) | inconclusive: -1.06% [signal inhibitor] |  |
| CCc1ccccc1NC(=O)[C@H](Cc1ccccc1)N1Cc2ccccc2C1=O | inconclusive: 2.18% [signal inhibitor] |  |
| OCCCCNc1cccc2ccccc12 | inactive |  |
| O=C(COc1ccc(Cl)cc1)Nc1nnc(-c2ccc3c(c2)CCCC3)o1 |  | inconclusive: 6.31 µM [rising, single point] |

| SMILES | IkBa stabilization activation | Potency |
| --- | --- | --- |
| COc1ccc(NC(=O)N2CCc3c(sc4c3CCCC4)C2c2ccc(F)cc2)cc1 (configuration not stated) | inconclusive: 1.56% [signal inhibitor] |  |
| CCn1c(=O)c2cc(C(=O)N(C)c3cc(C)ccc3C)sc2c2ccccc21 | inconclusive: -1.25% [signal inhibitor] |  |
| Cc1ccc(NC(=O)Nc2nnc(N3CCCCC3)s2)c(C)c1 | inconclusive: -0.349% [signal inhibitor] |  |
| CCOC(=O)C1CCN(C(=O)COc2ccc(Br)cc2)CC1 |  | inconclusive: 3.16 µM [signal inhibitor, full curve] |
| Cc1cc(C)c2nc(SCC(=O)N3CCCCC3)c(C#N)cc2c1 | inactive |  |
| O[Si@](CCCN1CCCCC1)(c1ccc(F)cc1)C1CCCCC1 | inactive |  |
| CCOc1ccc(-n2c(=O)c3c4c(sc3n(Cc3cccc(Cl)c3)c2=O)CCCC4)cc1 | inconclusive: 2.95% [signal inhibitor] |  |
| CCCCN1CC(c2nc3ccccc3n2CCCCOc2c(C)cccc2C)CC1=O (configuration not stated) |  | inconclusive: 31.6 µM [signal inhibitor, partial curve] |
| COc1ccc(-n2ccnc2SCC(=O)Nc2ccccc2)cc1 | inactive |  |
| CCOc1ccc(Sc2cc(C(=O)NCCc3ccc(OC)c(OC)c3)c3ccccc3n2)cc1 | inconclusive: -2.49% [signal inhibitor] |  |
| Cc1cc(C)n(-c2nc(SCC(=O)NCC3CCCO3)c3c4c(sc3n2)CCCC4)n1 (configuration not stated) | inactive |  |
| COc1ccc(C)cc1NC(=O)CN1CCN(c2ccc(F)cc2)CC1 | inconclusive: 4.44% [signal inhibitor] |  |
| CCCCCNCCCCC | inactive |  |
| CCn1c(=NC(=O)CSC(C)=O)sc2cc(F)ccc21 | inconclusive: 9.18% [signal inhibitor] |  |
| COc1ccc(-c2nn(-c3ccccc3)cc2C(=O)Nc2ccccc2OC)cc1 | inconclusive: 13.2% [signal inhibitor] |  |
| O=C1c2[nH]nc(-c3ccccc3O)c2C(c2cccc(Cl)c2)N1CC1CCCO1 (configuration not stated) | inconclusive: 1.45% [signal inhibitor] |  |
| C=CCNC(=O)c1c(Cl)cccc1Cl | inactive |  |
| Cc1c(CNCCCc2ccccc2)c(C(=O)O)c(C)n1Cc1ccc(Cl)cc1 | inconclusive: 1.66% [signal inhibitor] |  |
| Cc1ccc(Cn2cc(CCC(=O)NC3CCCCC3)c3ccccc32)cc1 | inconclusive: 0.0559% [signal inhibitor] |  |
| Cc1cc(-n2c(C)cc(C(=O)CSc3ccc4c(c3)OCCO4)c2C)no1 | inconclusive: 2.73% [signal inhibitor] |  |
| CCCCCSc1nnc2c(n1)OC(c1ccc(C)s1)N(C(C)=O)c1ccccc1-2 (configuration not stated) | inconclusive: -0.465% [signal inhibitor] |  |
| COC(=O)c1ccc(CSc2nc3ccccc3o2)cc1 | inactive |  |
| O=C(Cn1c(NCCO)nc2ccccc21)c1cccs1 | inactive |  |
| Cc1c(Cl)cccc1N1CC(c2nc3ccccc3n2Cc2ccccc2F)CC1=O (configuration not stated) | inconclusive: -5.48% [signal inhibitor] |  |
| Oc1ccccc1-c1nc(/C=C/c2ccc(F)cc2)no1 |  | inconclusive: 0.794 µM [signal inhibitor, full curve] |
